Test results reported in PubChem BioAssay (Tox21).
“And” between values parts separate entries of the source, which are not always exact repeats. Equal values may be shown once. Inconclusive means that the source gave no clear call. Such entries were picked first, then a sample of the others. A call without a number means that no potency is given here. For some assays here: Potencies of inconclusive entries are doubtful fits and often do not repeat. The source made the active and inactive calls. Unless noted, calls follow the shape of the dose curve; as a rule, active = well fitted curve in the direction sought with a large enough effect in the repeat runs; inconclusive = weak or mixed curves; inactive = no such curve, though single readings can be large; an effect the other way counts as inactive or inconclusive.

Columns and labels:
[1] = qHTS assay for small molecule agonists of the p53 signaling pathway (AID 651631; calls by dose curve; also: nearly all actives have a fitted effect of over 15% in size); details: HCT-116 p53RE-bla reporter, beta-lactamase FRET ratio, 16 h; activation: at 73.3 µM (top of the series) unless noted
In short: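 Stably transfected HCT-116 cells (beta-lactamase behind p53 response elements) get compounds after a 5 h settling period; 16 h later at 37 °C, FRET substrate is loaded and fluorescence read after 2 h.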

[2] = qHTS assay for identifying genotoxic compounds that show differential cytotoxicity against isogenic chicken DT40 cell lines with known DNA damage response pathways - wild type cell line (AID 743012); details: DT40 wild type chicken cells viability, CellTiter-Glo, 40 h; activity change, negative = cytotoxicity: at 68.4 µM (top of the series) unless noted; also: nearly all actives have a fitted effect of over 60% in size
In short: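 Luminescent ATP viability signal (CellTiter-Glo, 30 min RT) recorded after wild type DT40 cells were incubated with compounds for 40 h at 37 C/5% CO2.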

[3] = target: Estrogen receptor (Homo sapiens) (UniProt P03372); experiment: qHTS assay to identify small molecule agonists of the estrogen receptor alpha (ER-alpha) signaling pathway using the BG1 cell line (AID 743079); details: BG1Luc4E2 cells, ERE-luciferase agonist, 22 h; activation: at 70.3 µM (top of the series) unless noted; also: nearly all actives have a fitted effect of over 20% in size
[4] = qHTS assay to identify small molecule antagonists of the estrogen receptor alpha (ER-alpha) signaling pathway using the BG1 cell line - cell viability counter screen (AID 743081); details: BG1Luc4E2 viability, CellTiter-Fluor, 22 h; activity change, negative = cytotoxicity: at 70.3 µM (top of the series) unless noted;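 also: compound given together with 17beta-estradiol as the ER stimulus; nearly all actives have a fitted effect of over 45% in size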
[5] = target: Vitamin D3 receptor (Homo sapiens) (UniProt P11473); experiment: qHTS assay to identify small molecule antagonists of the vitamin D receptor (VDR) signaling pathway (AID 743223; active = well fitted inhibition curve with a large enough effect in the signal ratio in the repeat runs, not every such curve was filed as active; inconclusive = weak or mixed curves, or effect the other way; inactive = no such curve, though single readings can be large or run the other way; the % refers to the signal ratio); details: VDR-UAS-bla HEK293T, beta-lactamase FRET ratio, 16 h; activity change, negative = inhibition: at 61 µM (top of the series) unless noted
In short: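 Beta-lactamase activity in VDR-bla cells is measured by FRET substrate fluorescence (2 h, room temperature) after cells spend 16 h at 37C with test compound and 3 nM final 1alpha,25-dihydroxyvitamin D3.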

[6] = qHTS assay to identify small molecule antagonists of the estrogen related receptor (ERR) signaling pathway from Tox21 library - cell viability counter screen (AID 1224834); also: nearly all actives have a fitted effect of over 30% in size
In short: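 Compounds in DMSO were pinned onto ERR cells that had been incubated for 6 h, and the plates were held at 37 C for 17.5 h. CellTiter-Fluor reagent was then added and fluorescence was measured after 30 min.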

[7] = qHTS assay to identify small molecule agonists of H2AX (AID 1224845; active = well fitted activation curve with a large enough effect in the signal ratio in the repeat runs, not every such curve was filed as active; inconclusive = weak or mixed curves; the % refers to the signal ratio); details: CHO-K1 phospho-H2AX Ser139 HTRF, 3 h; activation (H2AX phosphorylation): at 154 µM (top of the series) unless noted
In short: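 Phospho-H2AX Ser139 measured by HTRF (ex 320 nm; em 665 and 620 nm) after 24 hr antibody incubation. Compounds, 15 concentrations, 0.76% DMSO, were applied to CHO-K1 cells for 3hr at 37C before lysis.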

[8] = qHTS assay to identify small molecule agonists of the hypoxia (HIF-1) signaling pathway (AID 1224846; active = well fitted activation curve with a large enough effect in the signal ratio in the repeat runs, not every such curve was filed as active; inconclusive = weak or mixed curves; the % refers to the signal ratio); details: HRE-bla ME-180 cells, beta-lactamase ratio, 17 h; activation: at 76.8 µM (top of the series) unless noted
In short: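 Agonist mode reporter screen. ME-180 cells stably expressing bla under HRE control received test compounds in DMSO for 17 hrs (37C, 5% CO2), and beta-lactamase activity was then detected with the CCF4-AM FRET substrate.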

[9] = A CellTox Green Cytotoxicity Assay to monitor cytotoxicity in HepG2 cells - 40 hour (AID 1224879); also: nearly all actives have a fitted effect of over 40% in size
In short: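 First, HepG2 cells (600/well) mixed with reagent were plated; second, after 5 h at 37 C they received compounds via pintool; third, fluorescence was measured at 0 h through 40 h at 8 h intervals.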

[10] = qHTS RealTime-Glo MT Cell Viability Assay in HEK293 cells - 0 hour (AID 1224880); also: potency is read from the fitted curve at half-maximal effect; nearly all actives have a fitted effect of over 45% in size
In short: (§1)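 600 HEK293 cells per well, dispensed already mixed with RealTime-Glo MT reagents. Compound dosing came 5 h later. The same wells were read for luminescence at 0, 8, 16, 24, 32 and 40 h of exposure at 37 C.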

[11] = qHTS RealTime-Glo MT Cell Viability Assay in HEK293 cells - 24 hour (AID 1224886); also: potency is read from the fitted curve at half-maximal effect; nearly all actives have a fitted effect of over 50% in size
In short: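 HEK293 cells were seeded at 600 cells/well together with NanoLuc luciferase and cell-permeant prosubstrate, preincubated 5 h at 37 C/5% CO2, then given compound in DMSO by pintool. Luminescence from viable-cell prosubstrate reduction was read repeatedly over 40 h.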

[12] = qHTS RealTime-Glo MT Cell Viability Assay in HEK293 cells - 8 hour (AID 1224887); also: potency is read from the fitted curve at half-maximal effect; nearly all actives have a fitted effect of over 50% in size
In short: as §1

[13] = target: Estrogen receptor beta (Homo sapiens) (UniProt Q92731); experiment: qHTS assay to identify small molecule agonists of the estrogen receptor beta (ER-beta) signaling pathway (AID 1259377; active = well fitted activation curve with a large enough effect in the signal ratio in the repeat runs, not every such curve was filed as active; inconclusive = weak or mixed curves, or effect the other way; the % refers to the signal ratio); details: ER-beta-UAS-bla HEK293T, beta-lactamase FRET ratio, 16 h; activation: at 92.4 µM (top of the series) unless noted
In short: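 In HEK293T cells bearing a UAS-beta-lactamase reporter under ER-beta control, DMSO-delivered compounds were incubated for 16 hr at 37C. Activity was detected as fluorescence 2 hours after LiveBLAzer B/G FRET substrate addition.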

[14] = target: Estrogen receptor beta (Homo sapiens) (UniProt Q92731); experiment: qHTS assay to identify small molecule antagonists of the estrogen receptor beta (ER-beta) signaling pathway (AID 1259378; active = well fitted inhibition curve with a large enough effect in the signal ratio in the repeat runs, not every such curve was filed as active; inconclusive = weak or mixed curves, or effect the other way; inactive = no such curve, though single readings can be large or run the other way; the % refers to the signal ratio); details: ER-beta-UAS-bla HEK293T, beta-lactamase FRET ratio, 16 h; activity, negative = inhibition: at 92.4 µM (top of the series) unless noted
In short: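 Antagonist mode: compounds added to beta-lactamase reporter HEK293T ER-beta-UAS cells stimulated with E2 (1nM final), 16 hr at 37C. LiveBLAzer B/G FRET substrate, 2 hours room temperature, fluorescence read-out.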

[15] = qHTS assay to identify small molecule agonists of the progesterone receptor (PR) signaling pathway - cell viability counter screen (AID 1346799; calls by dose curve; also: nearly all actives have a fitted effect of over 45% in size; also: potency is read from the fitted curve at half-maximal effect)
In short: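 Cytotoxicity in PR-bla HEK293T cells: 16 h compound, 37C; CellTiter-Glo added post-FRET read; luminescence after 30 min RT.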

[16] = Caspase-3/7 induction in HepG2 cells by small molecules, qHTS assay (AID 1346978); also: nearly all actives have a fitted effect of over 15% in size
In short: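 Caspase-3/7 induction was measured by Caspase-Glo 3/7 luminescence (30 min, room temperature) after a 17 hr compound exposure of wild-type HepG2 cells seeded at 2,000 per well and pre-incubated 5 hr.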

[17] = target: Cytochrome P450 1A2 (Homo sapiens) (UniProt P05177); experiment: Cytochrome P450 Family 1 Subfamily A Member 2 (CYP1A2) small molecule antagonists: luciferase reporter qHTS assay (AID 1671199); also: potency is read from the fitted curve at half-maximal effect; nearly all actives have a fitted effect of over 50% in size
In short: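 Steps: enzyme-substrate mix dispensed; test compounds and furafylline control pinned in; 10 min room temperature; NADPH regeneration solution added, 1 h; reaction stopped with luciferin detection reagent; luminescence read after 20 min.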
Tags tell the direction and shape of the fitted curve.

UniProt P03372, sequence (P03372 whole entry, looked up): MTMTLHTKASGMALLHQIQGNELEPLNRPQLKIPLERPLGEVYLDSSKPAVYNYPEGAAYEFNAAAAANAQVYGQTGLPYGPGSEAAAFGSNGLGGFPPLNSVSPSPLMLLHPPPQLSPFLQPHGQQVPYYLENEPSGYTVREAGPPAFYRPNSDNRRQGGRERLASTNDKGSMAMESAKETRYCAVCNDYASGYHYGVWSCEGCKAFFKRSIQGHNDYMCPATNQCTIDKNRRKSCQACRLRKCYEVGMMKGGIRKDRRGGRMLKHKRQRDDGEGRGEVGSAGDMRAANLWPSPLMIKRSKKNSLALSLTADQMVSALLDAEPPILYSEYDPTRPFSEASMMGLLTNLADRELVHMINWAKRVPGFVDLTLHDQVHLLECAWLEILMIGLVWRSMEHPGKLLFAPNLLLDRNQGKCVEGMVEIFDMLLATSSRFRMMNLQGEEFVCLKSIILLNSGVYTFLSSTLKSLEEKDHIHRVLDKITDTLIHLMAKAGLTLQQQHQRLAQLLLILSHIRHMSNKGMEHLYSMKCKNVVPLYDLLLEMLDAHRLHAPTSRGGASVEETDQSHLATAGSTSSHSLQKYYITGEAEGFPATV
UniProt P05177, sequence (P05177 whole entry, looked up): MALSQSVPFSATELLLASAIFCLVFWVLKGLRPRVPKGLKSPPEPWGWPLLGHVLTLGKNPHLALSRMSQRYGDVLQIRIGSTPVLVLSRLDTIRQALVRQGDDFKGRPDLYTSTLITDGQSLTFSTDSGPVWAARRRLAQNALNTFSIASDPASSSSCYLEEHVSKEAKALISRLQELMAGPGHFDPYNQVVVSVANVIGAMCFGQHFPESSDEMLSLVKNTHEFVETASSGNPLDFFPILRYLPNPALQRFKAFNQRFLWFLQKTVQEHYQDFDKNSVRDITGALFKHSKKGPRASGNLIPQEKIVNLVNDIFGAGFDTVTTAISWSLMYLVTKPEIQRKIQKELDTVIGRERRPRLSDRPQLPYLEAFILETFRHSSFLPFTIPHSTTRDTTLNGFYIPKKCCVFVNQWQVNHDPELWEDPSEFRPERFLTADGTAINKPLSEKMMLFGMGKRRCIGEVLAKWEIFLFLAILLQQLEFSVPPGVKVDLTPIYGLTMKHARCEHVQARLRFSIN
UniProt Q92731, sequence (Q92731 whole entry, looked up): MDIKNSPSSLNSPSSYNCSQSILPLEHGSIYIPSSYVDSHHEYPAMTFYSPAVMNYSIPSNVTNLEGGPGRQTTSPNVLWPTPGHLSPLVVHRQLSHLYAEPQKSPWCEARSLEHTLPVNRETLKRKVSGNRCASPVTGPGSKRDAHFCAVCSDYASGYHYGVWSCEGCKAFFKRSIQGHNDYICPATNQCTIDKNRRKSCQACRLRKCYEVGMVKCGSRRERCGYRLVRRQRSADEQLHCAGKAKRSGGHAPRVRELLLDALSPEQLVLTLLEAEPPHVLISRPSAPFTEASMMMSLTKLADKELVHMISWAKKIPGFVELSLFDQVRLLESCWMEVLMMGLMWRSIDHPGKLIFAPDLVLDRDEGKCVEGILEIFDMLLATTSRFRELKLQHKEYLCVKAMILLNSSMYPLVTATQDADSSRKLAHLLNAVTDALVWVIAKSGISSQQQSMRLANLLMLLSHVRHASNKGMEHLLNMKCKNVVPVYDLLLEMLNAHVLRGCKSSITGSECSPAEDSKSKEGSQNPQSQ
UniProt P11473, sequence (P11473 whole entry, looked up): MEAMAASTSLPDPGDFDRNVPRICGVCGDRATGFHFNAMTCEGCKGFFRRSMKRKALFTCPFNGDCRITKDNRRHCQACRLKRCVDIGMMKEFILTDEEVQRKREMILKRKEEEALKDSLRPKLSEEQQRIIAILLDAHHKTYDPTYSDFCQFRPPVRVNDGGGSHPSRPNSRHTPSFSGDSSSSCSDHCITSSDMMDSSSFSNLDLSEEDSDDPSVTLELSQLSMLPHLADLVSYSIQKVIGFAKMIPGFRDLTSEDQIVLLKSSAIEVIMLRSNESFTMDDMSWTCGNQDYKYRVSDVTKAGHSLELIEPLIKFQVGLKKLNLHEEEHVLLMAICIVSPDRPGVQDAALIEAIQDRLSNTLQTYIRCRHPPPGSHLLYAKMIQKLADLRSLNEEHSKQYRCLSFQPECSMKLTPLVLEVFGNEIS

Compound: OCCCc1ccccc1
- Potency [1]: inactive
- Potency [2]: inactive
- Potency [3]: inactive
- Potency [4]: inactive
- Potency [5]: inactive
- Potency [6]: inactive
- Potency [7]: inactive
- Potency [8]: inactive
- Potency [9]: inactive
- Potency [10]: inconclusive: 54.9 µM [rising, single point]
- Potency [11]: inconclusive: 61.6 µM [rising, partial curve, poor fit]
- Potency [12]: inconclusive: 54.9 µM [rising, partial curve, poor fit]
- activation [13]: inconclusive: 7.9% [at 42.5 µM]
- activity, negative = inhibition [14]: inconclusive: -2.59% [at 42.5 µM]
- Potency [15]: inconclusive: 68.6 µM [cytotoxic, partial curve, poor fit] and inactive
- Potency [16]: inactive
- Potency [17]: active: 35.6 µM and inconclusive: 34.7 µM [inhibitor, partial curve, poor fit]
